Among the data in publication PMC3591284 are binding values, retold here.

By UniProt entry, the sequences of proteins in these tests, tags left out.
UniProt Q96LA8: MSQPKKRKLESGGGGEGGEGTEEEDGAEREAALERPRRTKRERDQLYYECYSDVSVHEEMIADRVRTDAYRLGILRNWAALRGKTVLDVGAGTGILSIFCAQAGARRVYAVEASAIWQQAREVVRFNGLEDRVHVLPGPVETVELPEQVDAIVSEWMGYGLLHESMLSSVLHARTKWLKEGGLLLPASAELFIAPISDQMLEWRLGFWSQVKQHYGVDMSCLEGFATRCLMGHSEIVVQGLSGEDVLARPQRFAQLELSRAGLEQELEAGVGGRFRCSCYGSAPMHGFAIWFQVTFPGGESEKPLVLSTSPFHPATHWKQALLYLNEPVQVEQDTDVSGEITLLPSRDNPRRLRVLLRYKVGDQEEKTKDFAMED
UniProt Q99873: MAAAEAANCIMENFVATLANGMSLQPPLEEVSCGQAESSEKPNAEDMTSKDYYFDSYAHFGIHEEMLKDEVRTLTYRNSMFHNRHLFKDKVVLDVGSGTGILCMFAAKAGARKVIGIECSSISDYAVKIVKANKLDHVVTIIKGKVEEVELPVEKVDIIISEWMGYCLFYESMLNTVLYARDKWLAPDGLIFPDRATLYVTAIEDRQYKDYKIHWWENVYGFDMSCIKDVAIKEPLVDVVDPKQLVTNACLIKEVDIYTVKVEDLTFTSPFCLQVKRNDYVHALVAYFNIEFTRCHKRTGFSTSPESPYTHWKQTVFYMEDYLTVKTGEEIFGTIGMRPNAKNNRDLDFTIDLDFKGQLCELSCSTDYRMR
UniProt O60678: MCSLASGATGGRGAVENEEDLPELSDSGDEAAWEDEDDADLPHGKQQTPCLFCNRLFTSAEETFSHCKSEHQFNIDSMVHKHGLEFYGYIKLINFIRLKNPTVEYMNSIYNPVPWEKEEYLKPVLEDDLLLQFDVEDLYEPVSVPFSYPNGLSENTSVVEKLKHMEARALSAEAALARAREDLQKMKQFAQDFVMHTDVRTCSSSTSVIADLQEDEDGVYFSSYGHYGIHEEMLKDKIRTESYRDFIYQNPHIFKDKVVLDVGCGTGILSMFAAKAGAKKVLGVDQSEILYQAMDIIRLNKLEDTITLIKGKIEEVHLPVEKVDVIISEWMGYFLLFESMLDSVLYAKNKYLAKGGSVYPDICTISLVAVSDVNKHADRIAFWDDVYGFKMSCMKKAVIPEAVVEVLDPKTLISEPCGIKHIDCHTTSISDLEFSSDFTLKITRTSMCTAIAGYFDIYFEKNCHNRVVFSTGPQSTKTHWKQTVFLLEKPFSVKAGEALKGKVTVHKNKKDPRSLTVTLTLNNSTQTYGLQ
UniProt Q12873: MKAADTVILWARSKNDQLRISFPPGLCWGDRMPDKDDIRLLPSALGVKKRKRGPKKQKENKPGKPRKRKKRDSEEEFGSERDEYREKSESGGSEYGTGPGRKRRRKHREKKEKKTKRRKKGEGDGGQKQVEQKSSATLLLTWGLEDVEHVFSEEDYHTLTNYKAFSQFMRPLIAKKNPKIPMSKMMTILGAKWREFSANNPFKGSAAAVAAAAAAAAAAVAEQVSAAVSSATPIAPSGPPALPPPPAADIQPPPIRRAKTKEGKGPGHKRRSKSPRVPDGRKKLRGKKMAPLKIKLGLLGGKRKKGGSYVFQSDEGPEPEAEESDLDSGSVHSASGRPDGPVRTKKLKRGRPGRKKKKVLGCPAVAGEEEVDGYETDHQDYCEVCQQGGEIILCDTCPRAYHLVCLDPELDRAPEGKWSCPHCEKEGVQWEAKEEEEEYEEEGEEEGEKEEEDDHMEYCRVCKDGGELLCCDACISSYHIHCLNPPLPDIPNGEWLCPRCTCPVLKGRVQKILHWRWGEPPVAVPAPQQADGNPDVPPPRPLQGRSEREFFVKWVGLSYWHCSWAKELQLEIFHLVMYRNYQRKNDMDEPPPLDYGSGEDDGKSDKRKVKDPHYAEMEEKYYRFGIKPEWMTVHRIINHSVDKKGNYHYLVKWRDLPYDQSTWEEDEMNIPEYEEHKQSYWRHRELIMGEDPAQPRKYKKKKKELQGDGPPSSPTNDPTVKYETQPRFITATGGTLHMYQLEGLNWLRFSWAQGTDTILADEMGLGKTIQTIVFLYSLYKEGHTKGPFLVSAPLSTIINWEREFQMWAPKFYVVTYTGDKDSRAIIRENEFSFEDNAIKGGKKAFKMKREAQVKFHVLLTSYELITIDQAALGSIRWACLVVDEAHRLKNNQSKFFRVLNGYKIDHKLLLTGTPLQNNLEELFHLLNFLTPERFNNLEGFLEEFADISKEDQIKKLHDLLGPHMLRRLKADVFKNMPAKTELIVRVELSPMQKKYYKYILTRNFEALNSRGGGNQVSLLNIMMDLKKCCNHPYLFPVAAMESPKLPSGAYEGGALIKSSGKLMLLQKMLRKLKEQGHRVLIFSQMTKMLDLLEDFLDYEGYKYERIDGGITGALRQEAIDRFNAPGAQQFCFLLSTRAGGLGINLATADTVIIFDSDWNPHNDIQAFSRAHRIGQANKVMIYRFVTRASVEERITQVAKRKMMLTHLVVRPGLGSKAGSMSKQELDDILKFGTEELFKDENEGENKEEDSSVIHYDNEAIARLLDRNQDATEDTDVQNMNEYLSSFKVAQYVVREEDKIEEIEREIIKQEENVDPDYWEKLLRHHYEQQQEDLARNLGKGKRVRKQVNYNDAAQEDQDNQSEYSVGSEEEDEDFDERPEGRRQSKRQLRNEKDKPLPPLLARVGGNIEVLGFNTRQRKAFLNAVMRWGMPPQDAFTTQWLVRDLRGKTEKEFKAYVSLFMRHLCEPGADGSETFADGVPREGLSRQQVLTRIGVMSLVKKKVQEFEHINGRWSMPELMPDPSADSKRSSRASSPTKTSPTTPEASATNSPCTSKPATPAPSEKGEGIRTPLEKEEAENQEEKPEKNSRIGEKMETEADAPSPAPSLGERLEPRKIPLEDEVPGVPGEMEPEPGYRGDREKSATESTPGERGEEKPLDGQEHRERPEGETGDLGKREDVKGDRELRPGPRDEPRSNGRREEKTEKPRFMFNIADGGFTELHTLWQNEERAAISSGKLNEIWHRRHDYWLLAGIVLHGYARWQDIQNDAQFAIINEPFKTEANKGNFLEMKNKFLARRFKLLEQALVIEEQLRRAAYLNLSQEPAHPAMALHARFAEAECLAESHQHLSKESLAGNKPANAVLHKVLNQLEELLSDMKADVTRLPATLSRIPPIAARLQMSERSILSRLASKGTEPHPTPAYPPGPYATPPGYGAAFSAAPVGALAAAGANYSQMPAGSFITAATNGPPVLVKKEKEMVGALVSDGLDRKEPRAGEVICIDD
UniProt Q14839: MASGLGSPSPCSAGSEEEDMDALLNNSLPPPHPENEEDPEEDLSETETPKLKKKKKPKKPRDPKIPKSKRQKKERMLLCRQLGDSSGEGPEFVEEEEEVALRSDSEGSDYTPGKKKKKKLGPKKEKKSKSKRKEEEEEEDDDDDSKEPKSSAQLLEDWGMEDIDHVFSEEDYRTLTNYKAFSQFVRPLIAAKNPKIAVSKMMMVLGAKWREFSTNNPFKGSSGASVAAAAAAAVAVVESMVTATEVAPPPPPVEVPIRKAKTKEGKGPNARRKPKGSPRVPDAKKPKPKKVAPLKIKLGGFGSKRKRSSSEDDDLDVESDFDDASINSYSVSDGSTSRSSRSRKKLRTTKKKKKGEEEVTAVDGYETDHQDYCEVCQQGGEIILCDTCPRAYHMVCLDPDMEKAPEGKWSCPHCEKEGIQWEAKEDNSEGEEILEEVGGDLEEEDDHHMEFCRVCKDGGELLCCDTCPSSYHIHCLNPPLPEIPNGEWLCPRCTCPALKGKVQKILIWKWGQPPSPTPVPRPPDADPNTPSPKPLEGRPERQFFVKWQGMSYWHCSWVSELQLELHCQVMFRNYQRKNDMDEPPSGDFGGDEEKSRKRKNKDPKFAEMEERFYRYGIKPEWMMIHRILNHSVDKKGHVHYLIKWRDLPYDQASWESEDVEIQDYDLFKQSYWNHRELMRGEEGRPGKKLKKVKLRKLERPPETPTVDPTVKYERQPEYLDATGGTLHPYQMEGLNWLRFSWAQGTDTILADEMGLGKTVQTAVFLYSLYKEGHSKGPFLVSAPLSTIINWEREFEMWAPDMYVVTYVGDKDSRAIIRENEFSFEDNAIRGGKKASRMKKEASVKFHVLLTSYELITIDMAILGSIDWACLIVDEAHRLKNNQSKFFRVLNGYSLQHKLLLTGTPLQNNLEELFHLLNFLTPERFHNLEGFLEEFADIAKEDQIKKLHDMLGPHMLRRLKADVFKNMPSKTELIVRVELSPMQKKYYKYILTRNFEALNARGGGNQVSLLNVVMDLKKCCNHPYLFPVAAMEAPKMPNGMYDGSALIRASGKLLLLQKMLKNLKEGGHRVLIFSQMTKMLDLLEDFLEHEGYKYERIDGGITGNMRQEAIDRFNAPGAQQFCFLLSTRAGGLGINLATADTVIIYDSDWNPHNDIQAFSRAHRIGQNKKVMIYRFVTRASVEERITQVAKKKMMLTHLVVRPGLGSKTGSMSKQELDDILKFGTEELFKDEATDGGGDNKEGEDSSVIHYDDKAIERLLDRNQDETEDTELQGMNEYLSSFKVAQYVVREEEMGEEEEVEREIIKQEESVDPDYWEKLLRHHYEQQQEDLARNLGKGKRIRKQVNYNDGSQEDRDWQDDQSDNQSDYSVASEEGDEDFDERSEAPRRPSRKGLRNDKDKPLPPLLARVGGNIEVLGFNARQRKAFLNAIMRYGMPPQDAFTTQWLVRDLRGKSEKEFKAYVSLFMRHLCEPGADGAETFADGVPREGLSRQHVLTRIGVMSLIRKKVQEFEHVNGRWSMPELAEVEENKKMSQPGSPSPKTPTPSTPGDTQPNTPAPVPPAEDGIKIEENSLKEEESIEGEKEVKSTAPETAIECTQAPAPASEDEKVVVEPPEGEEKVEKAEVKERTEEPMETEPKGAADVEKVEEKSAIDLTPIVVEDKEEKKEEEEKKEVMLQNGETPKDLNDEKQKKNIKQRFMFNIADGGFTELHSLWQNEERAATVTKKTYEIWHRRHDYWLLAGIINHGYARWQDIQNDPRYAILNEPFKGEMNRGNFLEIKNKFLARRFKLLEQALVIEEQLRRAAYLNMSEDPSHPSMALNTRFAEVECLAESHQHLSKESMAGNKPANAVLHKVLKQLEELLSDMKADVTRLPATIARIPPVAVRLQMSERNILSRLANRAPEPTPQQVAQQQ
UniProt Q13547: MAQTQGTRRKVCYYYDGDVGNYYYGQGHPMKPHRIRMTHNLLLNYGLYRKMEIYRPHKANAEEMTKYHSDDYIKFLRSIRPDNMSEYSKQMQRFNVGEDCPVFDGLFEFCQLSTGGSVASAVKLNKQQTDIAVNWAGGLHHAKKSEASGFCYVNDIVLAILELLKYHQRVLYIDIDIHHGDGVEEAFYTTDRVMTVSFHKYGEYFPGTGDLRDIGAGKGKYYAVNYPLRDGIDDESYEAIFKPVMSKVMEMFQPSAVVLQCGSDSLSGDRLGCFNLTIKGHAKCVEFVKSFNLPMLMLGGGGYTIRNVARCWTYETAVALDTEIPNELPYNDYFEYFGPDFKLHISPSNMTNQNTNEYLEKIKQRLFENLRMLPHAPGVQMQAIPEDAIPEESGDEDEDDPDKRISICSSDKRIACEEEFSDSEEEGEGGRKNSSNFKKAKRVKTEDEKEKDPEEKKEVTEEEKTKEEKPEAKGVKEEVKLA
UniProt P10242: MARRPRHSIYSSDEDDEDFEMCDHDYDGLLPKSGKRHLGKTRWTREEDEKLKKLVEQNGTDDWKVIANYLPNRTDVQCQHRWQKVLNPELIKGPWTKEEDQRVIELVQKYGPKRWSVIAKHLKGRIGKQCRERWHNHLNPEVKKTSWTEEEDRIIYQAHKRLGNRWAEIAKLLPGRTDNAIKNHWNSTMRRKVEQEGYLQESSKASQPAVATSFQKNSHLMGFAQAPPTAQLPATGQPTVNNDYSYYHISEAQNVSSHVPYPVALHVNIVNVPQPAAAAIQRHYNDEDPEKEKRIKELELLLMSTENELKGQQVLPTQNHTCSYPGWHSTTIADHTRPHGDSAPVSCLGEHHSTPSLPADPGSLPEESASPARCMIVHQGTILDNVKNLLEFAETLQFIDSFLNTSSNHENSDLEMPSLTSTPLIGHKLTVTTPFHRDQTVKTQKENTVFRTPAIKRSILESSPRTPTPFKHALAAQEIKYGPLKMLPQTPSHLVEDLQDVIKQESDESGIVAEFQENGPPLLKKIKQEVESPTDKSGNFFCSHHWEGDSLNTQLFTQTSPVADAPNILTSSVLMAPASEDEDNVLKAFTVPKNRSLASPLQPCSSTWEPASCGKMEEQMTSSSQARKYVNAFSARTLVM

Results are given in words; binding and its absence hold for the method and conditions named. In cells and extracts the contact can be indirect. Some entries that bind do so weakly or less than the wild type. For part of these data: Sequences can lack the tags named with a protein.

One assay deals with GST-PRMT6 (UniProt Q96LA8). Put plainly: pull-down; GST and GST-PRMT1, -3, -4, -6 on glutathione beads incubated with 250 µg extract of Flag-Mi2α-overexpressing HEK293 cells; anti-Flag Western blot; only the target purified. On the technique in general: In western blotting, separated proteins are transferred to a membrane and probed.
A further assay deals with T1, GST-PRMT4 (UniProt Q86X55).
T1 sequence: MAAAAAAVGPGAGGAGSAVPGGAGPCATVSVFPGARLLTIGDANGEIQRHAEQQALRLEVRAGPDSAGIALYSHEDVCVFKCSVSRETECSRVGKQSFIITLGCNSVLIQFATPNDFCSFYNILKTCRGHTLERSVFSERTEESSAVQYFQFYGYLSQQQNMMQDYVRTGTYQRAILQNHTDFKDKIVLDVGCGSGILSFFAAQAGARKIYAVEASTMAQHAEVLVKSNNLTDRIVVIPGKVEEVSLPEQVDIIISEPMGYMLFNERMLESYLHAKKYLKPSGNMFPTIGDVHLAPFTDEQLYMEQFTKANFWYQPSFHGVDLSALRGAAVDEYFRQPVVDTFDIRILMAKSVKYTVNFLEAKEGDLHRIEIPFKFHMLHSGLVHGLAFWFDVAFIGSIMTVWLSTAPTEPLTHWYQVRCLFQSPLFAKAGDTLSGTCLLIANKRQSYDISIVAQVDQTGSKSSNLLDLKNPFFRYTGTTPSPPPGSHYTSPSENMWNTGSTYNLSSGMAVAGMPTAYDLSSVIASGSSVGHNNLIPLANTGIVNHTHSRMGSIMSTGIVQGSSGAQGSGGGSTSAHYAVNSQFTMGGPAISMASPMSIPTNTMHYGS
Described as above.

The target in a further assay is GST-PRMT1 (UniProt Q99873). The description is as above.
In the next assay the target is GST-PRMT3 (UniProt O60678). The assay is described as above.
The target of assay [1] is T2, Protein arginine methyltransferase 4 (PRMT4), endogenous in HEK293 cells (human (endogenous in HEK293)) (UniProt Q86X55).
T2 sequence: T1 sequence
Description: co-IP; transfected HEK293 cells, whole-cell extracts in IPH buffer (50 mM Tris pH 8, 150 mM NaCl, 5 mM EDTA, 0.5% NP40, 1 mM DTT), Benzonase-treated, 10 µg/ml ethidium bromide; isotype control IgG in parallel; Western blot.

Assay [2] has as its target Flag-tagged Mi2α, overexpressed in HeLa cells (UniProt Q12873). Put plainly: co-IP; HeLa cells transfected with Flag-Mi2α or empty vector; IP with anti-PRMT4, anti-Flag or isotype control IgG; Western blot with anti-MBD3, anti-HDAC1 and anti-Flag.
The target in assay [3] is T3, PRMT4, endogenous in Jurkat cells (human (endogenous in Jurkat)) (UniProt Q86X55).
T3 sequence: T1 sequence
Put plainly: co-IP; endogenous proteins, Jurkat cell extract incubated with anti-PRMT4 or anti-Mi2α or control IgG; Western blot.

Assay [4] concerns the target Mi2α, endogenous in Jurkat cells (human (endogenous in Jurkat)) (UniProt Q12873). The assay is described as above.

Turning to “Flag-tagged Mi2α, overexpressed in HEK293 cells (from UniProt Q12873 1-2000) (enzyme)”, the binding result in the assay with GST-PRMT6 is on record as “no binding”; with GST-PRMT4 it was “binds”; with GST-PRMT1, “binds”; in the assay with GST-PRMT3, “no binding”; in assay [1] it was “binds”.
Consider “HA-tagged Mi2β, overexpressed in HEK293 cells (from UniProt Q14839 1-1912) (enzyme)”, for which the binding result in assay [1] is given as “binds”.
In the case of “HDAC1, endogenous in HeLa cells (from UniProt Q13547 1-482) (enzyme)”, the binding entry in assay [2] was “binds”.
In the case of “c-Myb, endogenous in Jurkat cells (from UniProt P10242 1-640)”, the binding result in assay [3] and in assay [4] was “binds” throughout.
